15 molecules from the supplement of paper PMC10300432 can be followed below.

Recombinant human monoclonal antibodies (heavy:light variable regions). ELISA EC50 on the named antigen, from 10 µg/ml down; IC50 against spike pseudovirus on HT1080-ACE2 cells, 48 h; lower = stronger. Calls: IC50 above 1,000 ng/ml = non-neutralizing; EC50 above 1,000 ng/ml = non-binder.

Experiment [1] addresses SARS-CoV-2 Omicron BA.1 spike pseudovirus. The experiment can be described thus: pseudovirus neutralization IC50; higher = weaker neutralization. The procedure:
(§1)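 Single-round luciferase reporter pseudovirus mixed with antibody dilutions and put on HT1080-ACE2 clone 14 cells for 48 h; signal relative to no-antibody wells, four-parameter fit.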

The target of experiment [2] is SARS-CoV-2 Omicron BA.4/5 spike pseudovirus. The experiment is described as above. The procedure: as §1
In experiment [3] the target is SARS-CoV-2 Wuhan-Hu-1 spike pseudovirus. The experiment is described as above. As for the experimental part: as §1
The target of experiment [4] is SARS-CoV-2 Wuhan-Hu-1 spike receptor-binding domain. The experiment can be described thus: ELISA binding EC50; higher = weaker binding; ELISA of recombinant human antibody on coated antigen, from 10 µg/ml in fourfold dilutions; four-parameter fit. Background: In an ELISA, binding on a coated surface is turned into a signal by an enzyme label.

B1: C5289 (protein)
chain 1: EVQLLESGGGLVQPGGSLRLSCAASGFTLSDYAMSWVRLAPGKGLEWVSSISGSGAKTHYADSVKGRFTISRDNSKNTLFLQMNSLRAEDTGLYYCAKAYCGVSCYSYILDREDAFDIWGQGTMVTVSS
chain 2: QSVLTQPPSASGTPGQRVTISCSGSSSNIGSNSVYWYQQLPGTAPKLLIFRNNQRPSGVPDRFSGSKSGTSASLAISGLRSEDEADYYCAVWDDTLSGPVFGGGTRLTVL
Regarding B1, the “pseudovirus neutralization IC50” value is more than 1 µg/mL in experiment [1], 0.603 µg/mL in experiment [2] and 0.016 µg/mL in experiment [3]. Further, in experiment [4], the “ELISA binding EC50” value stood at 0.00407 µg/mL.

B2: C5288 (protein)
chain 1: EVQLVESGGGLVQPGGSLRLSCAASGFTFSTYDMHWVRQAPGKGLEWVSLIAKDGESHYSDSVKGRFTIFREEAKNSLYLHMNSLRAEDTAVYYCARVGYSGYDFYGMDVWGQGTTVTVSS
chain 2: SYELTQPPSVSVSPGQTARITCSGDAFPNQYAYWYQQKPGQAPVLVIYKDTERPSGIPERFSGSSSGTTVTLTIGGVQVEDEADYYCQSGDSRLWVFGGGTKLTVL
As for B2, the “pseudovirus neutralization IC50” value in experiment [1] was more than 1 µg/mL; in experiment [2] it was 0.843 µg/mL; in experiment [3] it was 0.112 µg/mL. The “ELISA binding EC50” value in experiment [4] came out at 0.00602 µg/mL.

B3: C5293 (protein)
chain 1: EVQLLESGGALLPPGGSLRLSCLVSGFPFSNYAMSWVRQAPGKGLEWVSGISGRGDISYYADSVKGRFTVSRDNAKNTLYLQMSRLSADDTAVYYCAKDQDMTMVQPEYFHHWGLGTLVTVSS
chain 2: DIQMTQSPSSVSASIGDRVTITCRASQGINRWLAWYQQKPGKAPKLLIYGASTLQSGVPSRFSGSGSGTDFTLTISSLQPEDFATYYCQQADSSPYTFGQGTKLEIK
For B3, the “pseudovirus neutralization IC50” value in experiment [1] stood at 0.00134 µg/mL; in experiment [2] it was 0.00135 µg/mL; in experiment [3], 0.00272 µg/mL. Besides, the “ELISA binding EC50” value in experiment [4] was found to be 0.00227 µg/mL.

B4: C5296 (protein)
chain 1: QVQLVESGGGVVQPGRSLRLSCAASGFTFSIYGMHWIRQAPGKGLEWVAAIWYDGSNKNYADSVKGRFTVSRDNSKSTLYLQINSLRSEDTAVYYCAKGLGTYASGWYSDYWGQGTLVTVSS
chain 2: DIQMTQSPSSLSASVGDRVTITCQASQDISNFLNWFQQKPGKAPKLLIYDASNLETGVPSRFSGSGSGTDFTFTISSLQPEDFATYYCQRYDNLPTWTFGQGTKVEIK
B4: the “pseudovirus neutralization IC50” value in experiment [1], in experiment [2] and in experiment [3] was more than 1 µg/mL each time. For the same molecule, the “ELISA binding EC50” value in experiment [4] was 0.00372 µg/mL.

B5: C5286 (protein)
chain 1: QVQLVESGGGAVQPGRSLRLSCAASGFIFTTFGMHWVRQAPGKGLEWVAVIWSDGSGKHYADSVKGRFTISRDNAKNTLYLQMNNLGAEDTAVYYCARDWGDMTTLFDYWGQGTLVTVSS
chain 2: DIQMTQSPSSLSASVGDRVTITCRASQSVRSFLNWYQQKPGKAPKLLIYGASSLQSGVPSRFSGSGSGTEFTLTISSLQPEDFATYYCQQSYETPPWTFGQGTKVEIK
Take B5: the results for the “pseudovirus neutralization IC50” value in experiment [1], in experiment [2] and in experiment [3] were more than 1 µg/mL, 0.865 µg/mL and 0.101 µg/mL, respectively. Further, in experiment [4], the “ELISA binding EC50” value worked out at 0.00363 µg/mL.

B6: C5287 (protein)
chain 1: QVQLVQSGAEVKKPGSSVKVSCKSSGGSFSSYAINWVRQAPGQGLEWMGGIVPIFGTLTFAQRFEGRLTITADESTGTAYMELSNLRSEDTAVYYCARDIEVAPLYGMDVWGQGTTVTVSS
chain 2: DIQMTQSPSSLSASVGDRVTITCRASQSISRYLNWYQQKPGKAPKLLIYGASSLQSGVPSRFSGSGSGTEFTLTISSLQPEDFATYYCQQSYSTPPITFGQGTRLEIK
With B6, the “pseudovirus neutralization IC50” value in experiment [1] is 0.01 µg/mL; in experiment [2] it was more than 1 µg/mL; in experiment [3] it was 0.0533 µg/mL. Moreover, the “ELISA binding EC50” value in experiment [4] turned out to be 0.00279 µg/mL.

B7: C5051 (protein)
chain 1: QVQLVQSGAEVKKPGSSVKVSCKVSGGTFSSYAISWVRQAPGQGLEWMGGIIPLFGRTNYAQKFQGRVTITADESTSTAYMELSSLRSEDTAVFYCATYGDIVYGANVLDYWGQGTLVIVSS
chain 2: EIVLTQSPGTLSLSPGERATLSCGASQSVSNNYLAWYQQRPGQAPRLLIYGVSSRAPGIPDRFSGSGSGTDFTLTISRLEPEDFAVYYCQQYGTSRTFGQGTKVEIK
Consider B7, for which the “pseudovirus neutralization IC50” value in experiment [1], in experiment [2] and in experiment [3] was more than 1 µg/mL each time. Besides, the “ELISA binding EC50” value in experiment [4] turned out to be 0.0176 µg/mL.

B8: C5290 (protein)
chain 1: EVQLVESGGGLVQPGRSLRLSCVASGFTFEDYAMHWVRQTPGKGLEWVSGISWNGGIIGSADSVQGRFIISRDNAANSMFLHMRGLRIEDSALYYCVKDKEFREAYNSRAGFDSWGQGTLVTVSS
chain 2: QSVLTQPPSASGTPGQRVSISCSGTRSNIGSNDVYWYQRLPGSAPKLLIFRNNQRPSGVPDRFSGSKSGTSASLAISGLRSEDEADYFCAAWDDRLSGPNVVFGGGTKLTVL
As to B8, the “pseudovirus neutralization IC50” value worked out at 0.0413 µg/mL in experiment [1], 0.0291 µg/mL in experiment [2] and 0.00546 µg/mL in experiment [3]. Also, the “ELISA binding EC50” value in experiment [4] came to 0.00356 µg/mL.

B9: C5292 (protein)
chain 1: QVQLVESGGGVVQPGRSLRLSCEASGFSFSNYGMHWVRQTPGKGLEWVAVIWYDGSDTYYADSVKGRFTISRDDSKNTLYLQMNSLRAEDTAVYYCAKGDWYSSTWHFFFEYWGQGTLVTVSS
chain 2: EIVMTQSPATLSVSPGERATLSCRANQSVSTNLAWYQQKPGQAPRLLIYGASTRATGIPARFSGSGSGTEFTLTISSLQSEDFAVYYCQQYKNWPPITFGQGTRLEIK
B9: the “pseudovirus neutralization IC50” value in experiment [1], in experiment [2] and in experiment [3] was more than 1 µg/mL throughout. Further, the “ELISA binding EC50” value in experiment [4] was found to be 0.0251 µg/mL.

B10: C5295 (protein)
chain 1: EVQLVESGGGLVQPGGSLRLSCSGSGFILSDFGMHWVRQAPGKGLEYVSAITSYGNSTYYADSVKGRFTISRDNSKNTLYLQMSSLRTEDTAVYYCAKSMVRGHAYYYGMDVWGQGTTVTVSS
chain 2: DIQMTQSPSSLSASVGDRVTITCRASQSIYNFLNWFQQKPGKAPKLLIHAASSLQSGVPSRFSGSGSGTDFTLTISTLHPEDFATYYCQQSYTTPHTFGQGTKLEIK
As to B10, the “pseudovirus neutralization IC50” value is 0.00152 µg/mL in experiment [1], more than 1 µg/mL in experiment [2] and 0.000851 µg/mL in experiment [3]. Also, the “ELISA binding EC50” value in experiment [4] stood at 0.00204 µg/mL.

B11: C5299 (protein)
chain 1: QVQLVQSGAEVKKPGASVKISCKASGYSFSDHYIYWVRQAPGQGLEWMGIINPSGGSISYHRRFQGRVTMTRDTSTKTVYMDLSRLRSEDTAVYYCARSSFGVPAASPFDHWGQGTLVTVSS
chain 2: EIVMTQSPAILSVSPGERATLSCRASQSVGTNLAWYQQKPGQAPRLLIYGASTWDTDIPTRFSGSGSGTEFTLTISSLQSEDFAVYYCQHYSNWPPVYTFGQGTKLEIK
Turning to B11, the “pseudovirus neutralization IC50” value in experiment [1], in experiment [2] and in experiment [3] was more than 1 µg/mL throughout. Further, the “ELISA binding EC50” value in experiment [4] came to 0.00479 µg/mL.

B12: C5294 (protein)
chain 1: EVQLVESGGSLAQPGGSLRLSCAASGFTFSTHDMHWLRQSPEKGLEWVSAIGTSGDTYYSDSVKGRFTISRENAKNSLYLQMNSLRAGDTAVYYCARGGRGYTFGSWYFDLWGRGTLVTVSS
chain 2: DIQMTQSPPSLSASVGDRVTITCRASQSITNYLNWYQQKPGKAPKLLIYAASTLQSGVPSRFSGSGSGTDFTLTISSLQPEDFATYYCQQSYTMPPITFGQGTRLEIK
Regarding B12, the “pseudovirus neutralization IC50” value in experiment [1], in experiment [2] and in experiment [3] was more than 1 µg/mL throughout. In experiment [4], the “ELISA binding EC50” value turned out to be 0.00362 µg/mL.

B13: C5052 (protein)
chain 1: QVQLVQSGAEVKKPGSSVRVSCKASGGPFSIYAISWVRQTPGLGPEWMGEIIPISGTPNYAQKFRDRVTITADESTSTVYMELSSLRSDDTAVYYCARGGRAYFDDNSGYWTFFDYWGQGTLVTVSS
chain 2: DIQMTQSPSSLSASVGDRVTITCRASQNISRFLNWYQQKPGKAPKLVIYAASTLQSGVPSRLSGSGSGTVFSLTISGLQPEDFSTYFCQQSYNAPRTFGQGTKLEIK
Take B13: the “pseudovirus neutralization IC50” value in experiment [1] was 0.00141 µg/mL; in experiment [2], more than 1 µg/mL; in experiment [3], 0.000612 µg/mL. For the same molecule, the “ELISA binding EC50” value in experiment [4] is 0.00265 µg/mL.

B14: C5297 (protein)
chain 1: QVQLVESGGGVAQPGRSLRLSCAGSGFSFSRYAMHWVRQAPGKGLEWVAVISSHGSNENYADSVKGRFTISRDDSKNTLYLQMNSLRAEDTAVYYCARGPPGWEVLLPFDFWGQGTLVTVS
chain 2: SYVLTQPPSVSVAPGQTATITCVGDNIRSKSVHWYQQKPGQAPVVVIYYDSDRPSGTPERFSGSNSGNTATLSVSRVEAGDEADYHCQVWDSSSDHWVFGGGTKLTVL
With B14, the “pseudovirus neutralization IC50” value in experiment [1] was more than 1 µg/mL; in experiment [2], more than 1 µg/mL; in experiment [3], 0.00945 µg/mL. Further, in experiment [4], the “ELISA binding EC50” value was 0.0033 µg/mL.

B15: C5298 (protein)
chain 1: QVQLVQSGAEVKKPGASVKVSCKAYGYTFTSYYIHWVRQAPGQGLEWMGIINPDAGSTTYAHKFQGRVTLTTDTSTSTVYMKLSSLRSEDTAVYYCARDLVLIPAINSLDFWGQGTLVTVSS
chain 2: EIVLTQSPATLSLSPGERATLSCRASQSVSSYLAWYQQKPGQAPRLLIYDASNRATGIPARFSGGGSGTDFTLTISSLEPEDFAVYYCQQRSGWPRVFTFGPGTKVDIK
B15: the “pseudovirus neutralization IC50” value in experiment [1], in experiment [2] and in experiment [3] was more than 1 µg/mL in each case. Besides, in experiment [4], the “ELISA binding EC50” value turned out to be 0.00522 µg/mL.
